The other results are listed elsewhere or left out.

The labels stand for the following.
B1: PhoQ; a variant is named by its letters at X, in order, P23837 (parent)
chain: MKKLLRLFFPLSLRVRFLLATAAVVLVLSLAYGMVALIGYSVSFDKTTFRLLRGESNLFYTLAKWENNKLHVELPENIDKQSPTMTLIYDENGQLLWAQRDVPWLMKMIQPDWLKSNGFHEIEADVNDTSLLLSGDHSIQQQLQEVREDDDDAEMTHSVAVNVYPATSRMPKLTIVVVDTIPVELKSSYMVWSWFIYVLSANLLLVIPLLWVAAWWSLRPIEALAKEVRELEEHNRELLNPATTRELTSLVRNLNRLLKSERERYDKYRTTLTDLTHSLKTPLXXLQXXLRSLRSEKMSVSDAEPVMLEQISRISQQIGYYLHRASMRGGTLLSRELHPVAPLLDNLTSALNKVYQRKGVNISLDISPEISFVGEQNDFVEVMGNVLDNACKYCLEFVEISARQTDEHLYIVVEDDGPGIPLSKREVIFDRGQRVDTLRPGQGVGLAVAREITEQYEGKIVAGESMLGGARMEVIFGRQHSAPKDE

In this experiment the parent is B1. Nature of the experiment: enrichment ratio after two sorts for PhoP signalling (ratio (wild type AVST 3.29)); higher = more functional. The following applies: with PhoP (E. coli).
Regarding WPNL, the enrichment ratio is not above 0.25.

As to RCKK, the enrichment ratio was not above 0.25.

Consider REHL, for which the enrichment ratio was not above 0.25.

As for DRGG, the enrichment ratio is not above 0.25.

Take AREI: the enrichment ratio is not above 0.25.

Regarding WLMC, the enrichment ratio is not above 0.25.

Consider NVSL, for which the enrichment ratio was not above 0.25.

As to MAPA, the enrichment ratio is not above 0.25.

For NPSD, the enrichment ratio is not above 0.25.

As for TSYP, the enrichment ratio was not above 0.25.

With VLLM, the enrichment ratio was found to be 0.26.

For the variant KNNQ, the enrichment ratio is not above 0.25.

As for NAAN, the enrichment ratio was not above 0.25.

Turning to QPSY, the enrichment ratio is not above 0.25.

For the variant DMTF, the enrichment ratio is not above 0.25.

For the variant NRRL, the enrichment ratio is not above 0.25.

In the case of RVIH, the enrichment ratio was not above 0.25.

Take GMDY: the enrichment ratio is not above 0.25.

AICT: the enrichment ratio was 18.

As for QDAH, the enrichment ratio is not above 0.25.

In the case of TMLP, the enrichment ratio was not above 0.25.

Take GKTY: the enrichment ratio is not above 0.25.

On to EDCG, for which the enrichment ratio was not above 0.25.

For the variant AQLG, the enrichment ratio amounted to 18.8.

Turning to ARHH, the enrichment ratio is not above 0.25.

Turning to PFED, the enrichment ratio is not above 0.25.

As to FKIT, the enrichment ratio was not above 0.25.

As to LYWP, the enrichment ratio is not above 0.25.

As for QQSS, the enrichment ratio is 1.45.

ILSG: the enrichment ratio was not above 0.25.

With VVYY, the enrichment ratio is not above 0.25.

As for SWRK, the enrichment ratio is not above 0.25.

With DADG, the enrichment ratio is not above 0.25.

Regarding GKEF, the enrichment ratio was not above 0.25.

In the case of RGCH, the enrichment ratio was not above 0.25.

As to MHNP, the enrichment ratio is not above 0.25.

For the variant HGPQ, the enrichment ratio is not above 0.25.

Consider CLVF, for which the enrichment ratio is not above 0.25.

Consider FLHC, for which the enrichment ratio is not above 0.25.

Take MNER: the enrichment ratio is not above 0.25.

For the variant RVQD, the enrichment ratio was not above 0.25.

Regarding AKAY, the enrichment ratio came out at 13.6.

On to YHIP, for which the enrichment ratio was not above 0.25.

For PNHH, the enrichment ratio was not above 0.25.

Turning to RVDF, the enrichment ratio was not above 0.25.

Consider VPML, for which the enrichment ratio was not above 0.25.

Take SAIK: the enrichment ratio is not above 0.25.

As to VCWQ, the enrichment ratio is not above 0.25.

On to NNSA, for which the enrichment ratio is not above 0.25.

For VHFS, the enrichment ratio is not above 0.25.

Take HYRN: the enrichment ratio is not above 0.25.

On to FFQI, for which the enrichment ratio was not above 0.25.

In the case of PRHF, the enrichment ratio is not above 0.25.

Consider MHLN, for which the enrichment ratio was not above 0.25.

For DGIR, the enrichment ratio was not above 0.25.

For the variant HCVR, the enrichment ratio was not above 0.25.

As for LGHK, the enrichment ratio is not above 0.25.

Regarding GMRN, the enrichment ratio is not above 0.25.

Turning to QPDY, the enrichment ratio was not above 0.25.

For the variant LVWH, the enrichment ratio is not above 0.25.

Regarding HQEF, the enrichment ratio is not above 0.25.

Consider GETF, for which the enrichment ratio is not above 0.25.

For MFTS, the enrichment ratio was not above 0.25.

On to SAWG, for which the enrichment ratio was not above 0.25.

On to WVKY, for which the enrichment ratio was not above 0.25.

Take HHQA: the enrichment ratio is not above 0.25.

In the case of AKQF, the enrichment ratio is not above 0.25.

On to KFVW, for which the enrichment ratio is not above 0.25.

QLFR: the enrichment ratio was not above 0.25.

With WGCK, the enrichment ratio was not above 0.25.

On to TATC, for which the enrichment ratio worked out at 7.1.

As to HRYN, the enrichment ratio is not above 0.25.

Regarding NSWW, the enrichment ratio was not above 0.25.

On to AWSA, for which the enrichment ratio is not above 0.25.

Regarding RCKW, the enrichment ratio is not above 0.25.

On to MDDK, for which the enrichment ratio is not above 0.25.

In the case of ENQD, the enrichment ratio was not above 0.25.

For the variant WCAP, the enrichment ratio is not above 0.25.

Regarding QEQI, the enrichment ratio is not above 0.25.

As to QEPH, the enrichment ratio is not above 0.25.

Take WSGQ: the enrichment ratio is not above 0.25.

With NQSH, the enrichment ratio is not above 0.25.

HYYL: the enrichment ratio is not above 0.25.

With SFAH, the enrichment ratio was not above 0.25.

As for KSDT, the enrichment ratio was not above 0.25.

Regarding YKFF, the enrichment ratio was not above 0.25.

On to YEAG, for which the enrichment ratio was not above 0.25.

AWTA: the enrichment ratio is not above 0.25.

On to FTVF, for which the enrichment ratio was not above 0.25.

Take TTCR: the enrichment ratio came to 7.57.

Turning to SDMQ, the enrichment ratio was 0.349.

In the case of SNKN, the enrichment ratio was not above 0.25.

Consider HTMV, for which the enrichment ratio was not above 0.25.

As for IPMM, the enrichment ratio was not above 0.25.

Regarding DPDR, the enrichment ratio was not above 0.25.

TDAV: the enrichment ratio was determined as 11.6.

Consider PRTW, for which the enrichment ratio is not above 0.25.

As for ITKP, the enrichment ratio is not above 0.25.

As for DHVC, the enrichment ratio is not above 0.25.

As for MHVS, the enrichment ratio is not above 0.25.

As for KVNY, the enrichment ratio was not above 0.25.

On to EQIQ, for which the enrichment ratio was not above 0.25.

Turning to GPWF, the enrichment ratio was not above 0.25.

With VGVF, the enrichment ratio is not above 0.25.

On to LNLQ, for which the enrichment ratio was not above 0.25.

Consider RGQL, for which the enrichment ratio is not above 0.25.

Turning to WAFD, the enrichment ratio was not above 0.25.

With RKLA, the enrichment ratio was not above 0.25.

Take GYKT: the enrichment ratio was not above 0.25.

For the variant GDYT, the enrichment ratio was not above 0.25.

Consider MSQK, for which the enrichment ratio is not above 0.25.

On to GTSQ, for which the enrichment ratio turned out to be 5.69.

As to EGMH, the enrichment ratio was not above 0.25.

Turning to PCFW, the enrichment ratio is not above 0.25.

With AKTI, the enrichment ratio turned out to be 23.6.

In the case of PCYL, the enrichment ratio was not above 0.25.

KAYF: the enrichment ratio is not above 0.25.

As for VLFH, the enrichment ratio was not above 0.25.

In the case of FMCK, the enrichment ratio was not above 0.25.

On to VNCT, for which the enrichment ratio was determined as 1.24.

Turning to FELT, the enrichment ratio is 6.15.

Consider AACQ, for which the enrichment ratio was not above 0.25.

PSGD: the enrichment ratio was not above 0.25.

In the case of AYHP, the enrichment ratio was not above 0.25.

As for MMPS, the enrichment ratio is not above 0.25.

For MADL, the enrichment ratio was not above 0.25.

With DQYR, the enrichment ratio was not above 0.25.

Turning to PMDG, the enrichment ratio is not above 0.25.

For the variant KKCP, the enrichment ratio is not above 0.25.

Turning to MVGG, the enrichment ratio is not above 0.25.

For ECEF, the enrichment ratio was not above 0.25.

As to TYWR, the enrichment ratio is not above 0.25.

Turning to KEHA, the enrichment ratio is not above 0.25.

Regarding WYLF, the enrichment ratio was not above 0.25.

As to MYCA, the enrichment ratio was not above 0.25.

In the case of VTWS, the enrichment ratio is not above 0.25.

As to DKEH, the enrichment ratio was not above 0.25.

Take PQYV: the enrichment ratio was not above 0.25.

DMYH: the enrichment ratio is not above 0.25.

As for YDNF, the enrichment ratio was not above 0.25.

On to FKST, for which the enrichment ratio was not above 0.25.

In the case of AFQP, the enrichment ratio is not above 0.25.

Turning to QYGC, the enrichment ratio was not above 0.25.

As to ITGG, the enrichment ratio is not above 0.25.

For the variant LATA, the enrichment ratio is not above 0.25.

Consider PVCT, for which the enrichment ratio is not above 0.25.

In the case of MMRA, the enrichment ratio was not above 0.25.

Take HQEC: the enrichment ratio was not above 0.25.

On to LSYP, for which the enrichment ratio was not above 0.25.

Turning to TYQN, the enrichment ratio was not above 0.25.

Regarding EAGV, the enrichment ratio is not above 0.25.

For the variant DWFC, the enrichment ratio was not above 0.25.

Regarding DRGV, the enrichment ratio is not above 0.25.

The values are drawn from a collection of fitness landscapes (doi:10.1126/science.1257360).
